# Results as given in the supplement of paper PMC9135407.
# “And” between values parts separate entries of the source, which are not always exact repeats. Equal entries are not always repeated. Structures can show the parent of a compound that is named as a salt. In all, about 5,800 compounds went through this assay and about 620 (11%) showed activity.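 Rule for the calls: active = score above a cut-off or among the top three wells of a plate; in these data no inactive exceeds 0.85.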 The list shows a part of the results, in another mix than the full data.
# System: primary human hepatic stellate cells (donor 1)
# Experiment: scaled lipid accumulation score (0 = DMSO-like, 1 = nortriptyline-like); higher = stronger HSC inactivation (lipid re-accumulation), active = hit call of the paper
# Conditions: 48 h
# [1] = library stock concentration: 10 mM
# [2] = library stock concentration: 3.33 mM
# [3] = library stock concentration: 2 mM
# [4] = library stock concentration: 80 uM
# [5] = library stock concentration: 400 uM
smiles,measurement,setting,value
CCN(CC)c1ccc(/C=N/NC(=O)c2ccc(O)cc2)cc1,scaled lipid accumulation score,[1],inactive: ≤ -0.001
CO[C@H]1/C=C/O[C@@]2(C)Oc3c(C)c(O)c4c(O)c(c5c(nc6cc(C)ccn65)c4c3C2=O)NC(=O)/C(C)=C\C=C\[C@H](C)[C@H](O)[C@@H](C)[C@@H](O)[C@@H](C)[C@H](OC(C)=O)[C@@H]1C,scaled lipid accumulation score,[1],inactive: ≤ 0
CO[C@H]1/C=C/O[C@@]2(C)Oc3c(C)c(O)c4c(O)c(c5c(nc6cc(C)ccn65)c4c3C2=O)NC(=O)/C(C)=C\C=C\[C@H](C)[C@H](O)[C@@H](C)[C@@H](O)[C@@H](C)[C@H](OC(C)=O)[C@@H]1C [Rifaximin],scaled lipid accumulation score,[2],inactive: ≤ 0
same,scaled lipid accumulation score,[1],inactive: ≤ 0
O=C1[C@H]2CCCC[C@H]2C(=O)N1CCCCN1CCN(c2nsc3ccccc23)CC1,scaled lipid accumulation score,[1],inactive: 0.113
Clc1cccc(Cl)c1NC1=NCCN1 [Clonidine HCl],scaled lipid accumulation score,[2],inactive: ≤ 0
same,scaled lipid accumulation score,library stock concentration: 8.7 mM,inactive: 0.036
same,scaled lipid accumulation score,[1],inactive: ≤ 0
Clc1cccc(Cl)c1NC1=NCCN1 [Clonidine hydrochloride],scaled lipid accumulation score,,inactive: ≤ 0
same,scaled lipid accumulation score,library stock concentration: 7.5 mM,inactive: ≤ 0
same,scaled lipid accumulation score,[1],inactive: ≤ 0 and inactive: 0.047
Clc1cccc(Cl)c1NC1=NCCN1 [Clonidine],scaled lipid accumulation score,library stock concentration: 21.7 mM,inactive: 0.047
Clc1cccc(Cl)c1NC1=NCCN1,scaled lipid accumulation score,[1],inactive: ≤ 0
Cc1cc(C(C)(C)C)cc(C)c1CC1=NCCN1 [Xylometazoline hydrochloride],scaled lipid accumulation score,,inactive: 0.431
same,scaled lipid accumulation score,library stock concentration: 7.1 mM,inactive: 0.382
same,scaled lipid accumulation score,[1],inactive: 0.155 and inactive: 0.049
Cc1cc(C(C)(C)C)cc(C)c1CC1=NCCN1 [Xylometazoline HCl],scaled lipid accumulation score,[2],inactive: 0.103
same,scaled lipid accumulation score,[1],inactive: 0.418
CCN(CC)C(=O)C1(c2ccccc2)CC1CN (stereo not given),scaled lipid accumulation score,[1],inactive: ≤ 0
CCN(CC)C(=O)C1(c2ccccc2)CC1CN (stereo not given) [Milnacipran],scaled lipid accumulation score,[1],inactive: ≤ 0
CCN(CC)C(=O)C1(c2ccccc2)CC1CN (stereo not given) [Milnacipran HCl],scaled lipid accumulation score,[2],inactive: ≤ 0
same,scaled lipid accumulation score,[1],inactive: ≤ -0.001
CCN(CCCCOC(=O)c1ccc(OC)c(OC)c1)C(C)Cc1ccc(OC)cc1 (stereo not given) [Mebeverine hydrochloride],scaled lipid accumulation score,,inactive: 0.362
same,scaled lipid accumulation score,[1],inactive: ≤ 0
"O=c1[nH]ccc2c(O)cccc12 [1,5-Isoquinolinediol]",scaled lipid accumulation score,[1],inactive: ≤ -0.055
O=c1cc(-c2ccccc2F)[nH]c2cc3c(cc12)OCO3 [CHM-1 hydrate],scaled lipid accumulation score,[1],active: 0.875
CCN1CCN(Cc2ccc(Nc3ncc(F)c(-c4cc(F)c5nc(C)n(C(C)C)c5c4)n3)nc2)CC1 [Abemaciclib],scaled lipid accumulation score,[3],active: 0.882
CC(C)(CO)[C@@H](O)C(=O)NCCC(=O)O [D-Pantothenic acid],scaled lipid accumulation score,[2],inactive: ≤ 0
same,scaled lipid accumulation score,[1],inactive: ≤ 0
CC(C)(CO)[C@@H](O)C(=O)NCCC(=O)O [Pantothenic acid],scaled lipid accumulation score,library stock concentration: 9.1 mM,inactive: 0.053
CC(C)(CO)[C@@H](O)C(=O)NCCC(=O)O [Pantothenic acid calcium salt monohydrate],scaled lipid accumulation score,,inactive: 0.031
CC(C)(CO)[C@@H](O)C(=O)NCCC(=O)O [Pantothenic acid(d) na salt],scaled lipid accumulation score,library stock concentration: 8.3 mM,inactive: ≤ 0
O=c1nc2ccccc2c2n1CC(CN1CCN(c3ccccc3)CC1)N2 (stereo not given),scaled lipid accumulation score,[1],inactive: 0.112
O=C(c1cc(O)c(O)c([N+](=O)[O-])c1)c1ccccc1F,scaled lipid accumulation score,[1],inactive: ≤ 0
CC#CCn1c(N2CCC[C@@H](N)C2)nc2c1c(=O)n(Cc1nc(C)c3ccccc3n1)c(=O)n2C [Linagliptin],scaled lipid accumulation score,[2],inactive: ≤ 0
same,scaled lipid accumulation score,[1],inactive: ≤ 0
CC/C=C/C[C@H](O)/C=C/[C@H]1[C@H](O)CC(=O)[C@@H]1C/C=C\CCCC(=O)O [17-trans Prostaglandin E3],scaled lipid accumulation score,library stock concentration: 1 mM,inactive: ≤ 0
C[C@@H]1C[C@H]2[C@@H]3CCC4=CC(=O)C=C[C@]4(C)[C@@]3(F)[C@@H](O)C[C@]2(C)[C@H]1C(=O)CO,scaled lipid accumulation score,[1],inactive: ≤ 0
CCN(CC)CCOCCOC(=O)C1(c2ccccc2)CCCC1 [Pentoxyverine Citrate],scaled lipid accumulation score,[2],inactive: ≤ 0
same,scaled lipid accumulation score,[1],inactive: 0.424
CCN(CC)CCOCCOC(=O)C1(c2ccccc2)CCCC1 [Carbetapentane citrate],scaled lipid accumulation score,,inactive: 0.595
same,scaled lipid accumulation score,[1],inactive: 0.72 and inactive: 0.014 and inactive: 0.411
COc1cc(OC)c2ccc(=O)oc2c1 [Citropten],scaled lipid accumulation score,[1],inactive: ≤ 0
CNC(=O)c1ccc(N2C(=S)N(c3ccc(C#N)c(C(F)(F)F)c3)C(=O)C2(C)C)cc1F [Enzalutamide (MDV3100)],scaled lipid accumulation score,[2],inactive: 0.025
same,scaled lipid accumulation score,[1],inactive: ≤ 0
CNC(=O)c1ccc(N2C(=S)N(c3ccc(C#N)c(C(F)(F)F)c3)C(=O)C2(C)C)cc1F [Enzalutamide],scaled lipid accumulation score,[4],inactive: ≤ -0.016
same,scaled lipid accumulation score,[5],inactive: ≤ -0.016
same,scaled lipid accumulation score,[3],inactive: ≤ -0.016
same,scaled lipid accumulation score,[1],inactive: ≤ -0.016
O=C(CCBr)N1CCN(C(=O)CCBr)CC1 [Pipobroman],scaled lipid accumulation score,[1],inactive: ≤ -0.027
CCCCC1C(=O)N(c2ccccc2)N(c2ccc(O)cc2)C1=O (stereo not given) [Oxyphenbutazone],scaled lipid accumulation score,,inactive: 0.3
same,scaled lipid accumulation score,library stock concentration: 6.2 mM,inactive: 0.785
same,scaled lipid accumulation score,[1],inactive: ≤ 0
N[C@H]1CONC1=O [(S)-(-)-Cycloserine],scaled lipid accumulation score,,inactive: ≤ 0
N[C@H]1CONC1=O [L-Cycloserine],scaled lipid accumulation score,[1],inactive: 0.082
N[C@H]1CONC1=O,scaled lipid accumulation score,[1],inactive: ≤ 0
COc1cc(OC)c(NC(=O)Nc2cc(C)on2)cc1Cl,scaled lipid accumulation score,[2],inactive: ≤ 0
same,scaled lipid accumulation score,[1],inactive: ≤ 0 and inactive: 0.398
CCCc1ccc(OCC(=O)N(Cc2nc(-c3cccnc3)no2)C(C)C)cc1,scaled lipid accumulation score,[2],inactive: ≤ -0.009
same,scaled lipid accumulation score,[1],inactive: 0.353
CC(C)NCCCn1c(Sc2cc3c(cc2I)OCO3)nc2c(N)ncnc21,scaled lipid accumulation score,[1],active: 0.881
C[C@H]1O[C@@H](O[C@H]2[C@@H](O)C[C@H](O[C@H]3[C@@H](O)C[C@H](O[C@H]4CC[C@]5(C)C6CC[C@]7(C)[C@@H](C8=CC(=O)OC8)CC[C@]7(O)C6CC[C@@H]5C4)O[C@@H]3C)O[C@@H]2C)C[C@H](O)[C@@H]1O (stereo not given in full) [Digitoxin],scaled lipid accumulation score,library stock concentration: 2.6 mM,active: 1.2
CC(=O)Nc1ccc(OC(=O)c2ccccc2O)cc1 [Acetaminosalol],scaled lipid accumulation score,[1],inactive: ≤ 0
COc1cc2nc(N3CCN(C(=O)C4COc5ccccc5O4)CC3)nc(N)c2cc1OC (stereo not given) [Doxazosin],scaled lipid accumulation score,[1],inactive: 0.539
COc1cc2nc(N3CCN(C(=O)C4COc5ccccc5O4)CC3)nc(N)c2cc1OC (stereo not given) [Doxazosin mesylate],scaled lipid accumulation score,,inactive: ≤ 0
same,scaled lipid accumulation score,library stock concentration: 4.4 mM,inactive: 0.151
same,scaled lipid accumulation score,[1],inactive: 0.85
COc1cc2nc(N3CCN(C(=O)C4COc5ccccc5O4)CC3)nc(N)c2cc1OC (stereo not given) [Doxazosin Mesylate],scaled lipid accumulation score,[2],inactive: ≤ 0
same,scaled lipid accumulation score,[1],inactive: 0.473
N#C/C(=C(/N)Sc1ccc(N)cc1)c1ccccc1C(F)(F)F,scaled lipid accumulation score,[2],inactive: ≤ 0
same,scaled lipid accumulation score,[1],inactive: ≤ 0 and inactive: 0.014
O=c1c(O)c(-c2ccc(O)cc2)oc2cc(O)cc(O)c12 [Kaempferol],scaled lipid accumulation score,,inactive: ≤ 0
same,scaled lipid accumulation score,[2],inactive: 0.087
same,scaled lipid accumulation score,[1],inactive: 0.173 and inactive: 0.109
C=C/C(C)=C/[C@@]1(C)SC(=O)C(C)=C1O [Thiolactomycin],scaled lipid accumulation score,[1],inactive: 0.146
CCOC(=O)Nc1nc2ccccc2[nH]1 [Lobendazole],scaled lipid accumulation score,library stock concentration: 9.7 mM,inactive: ≤ 0
CC1(C)Cc2c(-c3ccccc3)c(-c3ccc(Cl)cc3)c(CC(=O)O)n2C1 [Licofelone],scaled lipid accumulation score,[2],inactive: ≤ 0
same,scaled lipid accumulation score,[1],inactive: ≤ 0
O=C(/C=C/c1cccc(S(=O)(=O)Nc2ccccc2)c1)NO [Belinostat],scaled lipid accumulation score,[4],inactive: ≤ 0
same,scaled lipid accumulation score,[5],inactive: ≤ 0
same,scaled lipid accumulation score,[3],inactive: 0.109
same,scaled lipid accumulation score,[1],inactive: 0.445
O=C(/C=C/c1cccc(S(=O)(=O)Nc2ccccc2)c1)NO [Belinostat (PXD101)],scaled lipid accumulation score,[2],inactive: 0.658
same,scaled lipid accumulation score,[1],inactive: 0.261
NC[C@H]1O[C@H](O[C@H]2[C@H](O)[C@@H](O[C@H]3O[C@H](CO)[C@@H](O)[C@H](N)[C@H]3O)[C@H](N)C[C@@H]2N)[C@H](N)C[C@@H]1O [Tobramycin],scaled lipid accumulation score,,inactive: ≤ 0
C=CCOc1ccccc1OCC(O)CNC(C)C (stereo not given) [Oxprenolol hydrochloride],scaled lipid accumulation score,,inactive: ≤ 0
O=C(O)c1ccc[n+]([O-])c1,scaled lipid accumulation score,[1],inactive: 0.036
Cc1c(N)c(=O)n(-c2ccccc2)n1C [Ampyrone],scaled lipid accumulation score,,inactive: 0.084
Nc1cc2c(ncn2CCOCP(=O)(O)O)c(=O)[nH]1 [PMEG hydrate],scaled lipid accumulation score,[1],inactive: ≤ -0.055
COc1ccc2c(c1)c(CC(=O)O)c(C)n2C(=O)c1ccccc1 [1-benzoyl-5-methoxy-2-methylindole-3-acetic acid],scaled lipid accumulation score,[1],inactive: 0.062
"CN1C(=O)/C(=C2\Nc3ccccc3\C2=N\O)c2ccc(Br)cc21 [GSK-3 Inhibitor IX, Control, MeBIO]",scaled lipid accumulation score,[2],active: 1.07
CCn1c(=O)c2c(nc(/C=C/c3ccc(OC)c(OC)c3)n2C)n(CC)c1=O [Istradefylline],scaled lipid accumulation score,[2],inactive: 0.09
same,scaled lipid accumulation score,[1],inactive: 0.219
CCCn1c(=O)c(C)cn2nc(N)nc12,scaled lipid accumulation score,[1],inactive: ≤ 0 and inactive: 0.03
O=C1Nc2ccc(Br)cc2/C1=C/c1cc2c([nH]1)CCCC2 [VEGF Receptor 2 Kinase Inhibitor II],scaled lipid accumulation score,[2],inactive: 0.454
"Cc1ccc(OCC(O)C(C)NC(C)C)c2c1CCC2 (stereo not given) [ICI-118,551 hydrochloride]",scaled lipid accumulation score,[1],inactive: 0.575
CN([C@@H](Cc1ccc(OS(=O)(=O)c2cccc3cnccc23)cc1)C(=O)N1CCN(c2ccccc2)CC1)S(=O)(=O)c1cccc2cnccc12,scaled lipid accumulation score,[4],inactive: ≤ 0
same,scaled lipid accumulation score,[5],inactive: ≤ 0
same,scaled lipid accumulation score,[3],inactive: ≤ 0
same,scaled lipid accumulation score,[1],inactive: 0.021
